Results: the supplement of paper PMC4604168 (melanoma cell lines)
The other results are listed elsewhere or left out. Most values come without repeats; read them as rough.

Tests used:
Assay in all cases: cell count relative to DMSO control; melanoma cells; higher = more viable cells
Details in all cases: library dose: low library concentration; 72 h
MZ2-MEL = test system: MZ2-MEL
MeWo = test system: MeWo
RPMI7951 = test system: RPMI7951
RVH-421 = test system: RVH-421
SkMel28 = test system: SkMel28
SkMel30 = test system: SkMel30
SkMel5 = test system: SkMel5
UACC257 = test system: UACC257
UACC62 = test system: UACC62
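Note: cell number obtained by counting DAPI-stained nuclei in high-throughput microscope images with image analysis software, screen run in 1,536-well plates.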

| SMILES | cell count (MZ2-MEL) | cell count (MeWo) | cell count (RPMI7951) | cell count (RVH-421) | cell count (SkMel28) | cell count (SkMel30) | cell count (SkMel5) | cell count (UACC257) | cell count (UACC62) |
| --- | --- | --- | --- | --- | --- | --- | --- | --- | --- |
| C[C@@H]1CCN(C(=O)CC#N)C[C@@H]1N(C)c1ncnc2[nH]ccc12 + CCCCCCCCCCCC1=C(O)C(=O)C=C(O)C1=O [Embelin] (first compound 1 µM, partner dose 1.2 µM) | 101% | 102% | 128% | 123% | 86.6% | 101% | 95.1% | 89.8% | 117% |
| CC1(C)NC(=O)N(c2ccc([N+](=O)[O-])c(C(F)(F)F)c2)C1=O [nilutamide] + Cn1cc(/C=C2\C(=O)Nc3cccnc32)c2ccccc21 [GW441756] (first compound 1 µM, partner dose 0.4 µM) | 96.7% | 113% | 95% | 95.3% | 101% | 115% | 86.3% | 87.5% | 92.3% |
| C[C@@H]1CCN(C(=O)CC#N)C[C@@H]1N(C)c1ncnc2[nH]ccc12 + Cc1cc([N+](=O)[O-])ccc1NS(=O)(=O)c1cc(Cl)ccc1Cl [FH535] (first compound 1 µM, partner dose 1 µM) | 93.8% | 93.2% | 119% | 103% | 108% | 106% | 98% | 77.8% | 94.5% |
| O=C(O)c1ccc(-c2c[nH]c3ncc(-c4ccccc4)cc23)cc1C1CCCC1 + O=C(Nc1ccccc1)c1cc([N+](=O)[O-])ccc1Cl [GW9662] (first compound 0.16 µM, partner dose 2 µM) | 99.7% | 91.2% | 94.2% | 116% | 86.4% | 93.9% | 95% | 90.6% | 105% |
| COc1cc(Nc2ncc(F)c(Nc3ccc4c(n3)NC(=O)C(C)(C)O4)n2)cc(OC)c1OC [Tamatinib] + COc1ccc(-c2ccc3c(N4CCOCC4)nc(N4C[C@@H](C)O[C@@H](C)C4)nc3n2)cc1CO [KU0063794] (first compound 0.4 µM, partner dose 0.02 µM) | 89.4% | 76.5% | 86.9% | 80.8% | 67.5% | 70% | 82.3% | 61.2% | 77.4% |
| C[C@@H]1CCN(C(=O)CC#N)C[C@@H]1N(C)c1ncnc2[nH]ccc12 + O=S(=O)(c1ccccc1)N(CC(F)(F)F)c1ccc(C(O)(C(F)(F)F)C(F)(F)F)cc1 [T0901317] (first compound 1 µM, partner dose 1.4 µM) | 98% | 89.7% | 102% | 93.8% | 85.4% | 92.6% | 87.1% | 98.7% | 93.4% |
| O=C(O)c1ccc(-c2c[nH]c3ncc(-c4ccccc4)cc23)cc1C1CCCC1 + CC(C)CCN1c2nc(Nc3cc(F)c(O)c(F)c3)ncc2N(C)C(=O)C1C [BID1870] (first compound 0.16 µM, partner dose 0.2 µM) | 101% | 80.1% | 108% | 610% | 77.4% | 95% | 89.5% | 99.7% | 83.6% |
| C[C@@H]1CCN(C(=O)CC#N)C[C@@H]1N(C)c1ncnc2[nH]ccc12 + Oc1cc(-c2nc(-c3ccccc3)[nH]c2-c2ccncc2)ccc1Cl [L779450] (first compound 1 µM, partner dose 0.2 µM) | 78% | 93.1% | 108% | 94.8% | 94.6% | 88.5% | 97.2% | 87.9% | 72.2% |
| COc1cc(Nc2ncc(F)c(Nc3ccc4c(n3)NC(=O)C(C)(C)O4)n2)cc(OC)c1OC [Tamatinib] + O=C(O)C(=O)Nc1sc2c(c1C(=O)O)CCNC2 [TCS401] (first compound 0.4 µM, partner dose 1.66667 µM) | 83.7% | 96.7% | 88.1% | 96.2% | 76.2% | 90.7% | 83.1% | 53.7% | 96.6% |
| Cn1cncc1[C@@](N)(c1ccc(Cl)cc1)c1ccc2c(c1)c(-c1cccc(Cl)c1)cc(=O)n2C [tipifarnib] + O=C(Nc1ccccc1)c1cc([N+](=O)[O-])ccc1Cl [GW9662] (first compound 0.01 µM, partner dose 2 µM) | 101% | 81.6% | 90.9% | 112% | 77.5% | 82.5% | 107% | 85.6% | 81.4% |
| COc1cc(Nc2ncc(F)c(Nc3ccc4c(n3)NC(=O)C(C)(C)O4)n2)cc(OC)c1OC [Tamatinib] + O=S(=O)(c1ccccc1)N(CC(F)(F)F)c1ccc(C(O)(C(F)(F)F)C(F)(F)F)cc1 [T0901317] (first compound 0.4 µM, partner dose 1.4 µM) | 85.3% | 78.6% | 70.3% | 98.8% | 72.7% | 81.7% | 91.1% | 62% | 88% |
| Cn1cncc1[C@@](N)(c1ccc(Cl)cc1)c1ccc2c(c1)c(-c1cccc(Cl)c1)cc(=O)n2C [tipifarnib] + Cn1cc(/C=C2\C(=O)Nc3cccnc32)c2ccccc21 [GW441756] (first compound 0.01 µM, partner dose 0.4 µM) | 98.7% | 96.4% | 79.6% | 71.6% | 75.1% | 118% | 86.9% | 54.6% | 77.7% |
| O=C(Nc1cccc(Cl)c1)Nc1ncc(CCNc2ncnc3ccsc23)s1 + COc1ccc2c(c1)CCC1C2CCC2(C)C(NCCCCCCN3C(=O)C=CC3=O)CCC12 [U73122] (first compound 0.0008 µM, partner dose 0.4 µM) | 94.5% | 101% | 92% | 104% | 97.7% | 108% | 96.9% | 95.4% | 106% |
| O=C(Nc1cccc(Cl)c1)Nc1ncc(CCNc2ncnc3ccsc23)s1 + Oc1cc(-c2nc(-c3ccccc3)[nH]c2-c2ccncc2)ccc1Cl [L779450] (first compound 0.0008 µM, partner dose 0.2 µM) | 76% | 109% | 94.2% | 74.4% | 82.5% | 85.2% | 117% | 90.2% | 88.1% |
| COc1cc(Nc2ncc(F)c(Nc3ccc4c(n3)NC(=O)C(C)(C)O4)n2)cc(OC)c1OC [Tamatinib] + COc1ccc2c(c1)CCC1C2CCC2(C)C(NCCCCCCN3C(=O)C=CC3=O)CCC12 [U73122] (first compound 0.4 µM, partner dose 0.4 µM) | 92.1% | 90.5% | 94.3% | 79.8% | 79.8% | 111% | 98.3% | 66.4% | 96.1% |
| C[C@@H]1CCN(C(=O)CC#N)C[C@@H]1N(C)c1ncnc2[nH]ccc12 + Oc1nc(-c2ccc(C(F)(F)F)cc2)nc2c1CSCC2 [XAV939] (first compound 1 µM, partner dose 2 µM) | 95.3% | 88.7% | 102% | 84.3% | 81.8% | 125% | 93.8% | 83.8% | 81.4% |
| CC1(C)NC(=O)N(c2ccc([N+](=O)[O-])c(C(F)(F)F)c2)C1=O [nilutamide] + O=C1NC(=O)/C(=C/c2ccc(-c3ccc(F)cc3O)o2)S1 [AS252424] (first compound 1 µM, partner dose 1 µM) | 96.4% | 98.5% | 109% | 121% | 91% | 116% | 97.2% | 74.1% | 80.4% |
| O=C(Nc1cccc(Cl)c1)Nc1ncc(CCNc2ncnc3ccsc23)s1 + CCCCCCCCCCCC1=C(O)C(=O)C=C(O)C1=O [Embelin] (first compound 0.0008 µM, partner dose 1.2 µM) | 97.9% | 100% | 98.9% | 117% | 78.2% | 106% | 102% | 104% | 95.3% |
| COc1cc(Nc2ncc(F)c(Nc3ccc4c(n3)NC(=O)C(C)(C)O4)n2)cc(OC)c1OC [Tamatinib] + COc1cc2ncnc(Nc3ccc(Oc4ccccc4)cc3)c2cc1OC [SrcI1] (first compound 0.4 µM, partner dose 2 µM) | 85.3% | 94.3% | 88.6% | 103% | 85.4% | 109% | 89% | 77.8% | 108% |
| COc1cc(Nc2ncc(F)c(Nc3ccc4c(n3)NC(=O)C(C)(C)O4)n2)cc(OC)c1OC [Tamatinib] + COc1ccc(COc2ccc(Cc3cnc(N)nc3N)cc2OC)cc1 [GW2580] (first compound 0.4 µM, partner dose 1 µM) | 95.4% | 92.5% | 88.7% | 75.7% | 75.7% | 96.5% | 88.2% | 90.8% | 93.1% |
| C[C@@H]1CCN(C(=O)CC#N)C[C@@H]1N(C)c1ncnc2[nH]ccc12 + COC(=O)c1sccc1S(=O)(=O)Nc1ccc(Nc2ccccc2)cc1OC [GSK0660] (first compound 1 µM, partner dose 1 µM) | 96.5% | 104% | 87% | 113% | 107% | 109% | 105% | 91.8% | 102% |
| Cn1cncc1[C@@](N)(c1ccc(Cl)cc1)c1ccc2c(c1)c(-c1cccc(Cl)c1)cc(=O)n2C [tipifarnib] + CC(C)CCN1c2nc(Nc3cc(F)c(O)c(F)c3)ncc2N(C)C(=O)C1C [BID1870] (first compound 0.01 µM, partner dose 0.2 µM) | 96.1% | 79.8% | 81% | 90.9% | 87.8% | 78.8% | 111% | 69.9% | 71.1% |
| COc1cc(Nc2ncc(F)c(Nc3ccc4c(n3)NC(=O)C(C)(C)O4)n2)cc(OC)c1OC [Tamatinib] + c1cc(-c2cnn3cc(-c4ccc(OCCN5CCCCC5)cc4)cnc23)ccn1 [Dorsomorphin] (first compound 0.4 µM, partner dose 0.4 µM) | 92.7% | 89.7% | 89.4% | 94.1% | 81.7% | 87.2% | 86.1% | 74.9% | 81.5% |
